These results are taken from article PMC6919601, “Identification of Plasmodium dipeptidyl aminopeptidase allosteric inhibitors by high throughput screening” (PLoS ONE, 2019).

SMILES strings stand for the structures. Hit rate of the full screen: of about 110,000 compounds, about 230 (0.21%) showed an effect of 50% or more. The list shows a part of the results.
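Further: 30 min substrate incubation versus DMSO and 10 µM JCP410 controls.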

DPAP1, sequence (Q8IIJ9 whole entry, looked up): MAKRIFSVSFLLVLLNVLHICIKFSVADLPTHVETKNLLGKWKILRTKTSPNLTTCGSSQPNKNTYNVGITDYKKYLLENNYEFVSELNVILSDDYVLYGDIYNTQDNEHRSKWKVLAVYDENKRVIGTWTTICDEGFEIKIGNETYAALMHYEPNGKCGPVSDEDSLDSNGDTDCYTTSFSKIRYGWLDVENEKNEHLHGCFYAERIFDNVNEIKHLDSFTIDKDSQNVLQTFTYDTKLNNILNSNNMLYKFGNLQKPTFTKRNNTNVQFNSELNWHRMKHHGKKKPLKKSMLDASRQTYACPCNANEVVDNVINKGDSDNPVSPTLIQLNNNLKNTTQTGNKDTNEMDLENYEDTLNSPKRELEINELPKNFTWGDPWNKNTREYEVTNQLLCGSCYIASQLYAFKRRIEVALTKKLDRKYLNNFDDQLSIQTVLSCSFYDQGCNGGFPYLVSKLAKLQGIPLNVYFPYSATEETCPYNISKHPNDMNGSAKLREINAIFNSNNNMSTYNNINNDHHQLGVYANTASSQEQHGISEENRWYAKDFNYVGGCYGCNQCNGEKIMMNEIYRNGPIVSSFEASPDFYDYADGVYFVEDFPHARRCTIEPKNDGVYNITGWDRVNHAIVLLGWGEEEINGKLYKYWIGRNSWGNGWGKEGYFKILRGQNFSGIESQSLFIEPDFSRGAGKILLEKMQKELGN

The experiment has as its target DPAP1 (Plasmodium falciparum, UniProt Q8IIJ9). Put plainly: primary screen, percent inhibition; read by cleavage of a fluorogenic dipeptide substrate; higher = more effect of the substance. Also on record: species or system P. falciparum D10 trophozoite lysates; single well.
As to `O=C(Cn1ccn(Cc2ccccc2)c(=O)c1=O)c1ccc(F)cc1`, the “% Inhibition @ 10 uM” value is given as -4.42%.
Under `CC1CCN(c2ccc3nnc(CCC(=O)NC(C)CCc4ccco4)n3n2)CC1` (centres unmarked) stands -5.23%; under `CCN(CC)c1nc(SC)nc(Cl)c1Cc1ccc(OC)cc1`, -3.75%.
`COc1ccccc1C(=O)Nc1cc(C)ccn1`: the “% Inhibition @ 10 uM” value is -8.83%.
As for `Cc1ccc(/C=C2\CCC/C(=C\c3ccc(C)o3)C2=O)o1`, the “% Inhibition @ 10 uM” value is reported as 0.287%.
In the case of `CC1CCCCN1CCCNC(=O)c1nc(-c2ccc(Cl)cc2)n2c1CCCCC2` (centres unmarked), the “% Inhibition @ 10 uM” value was 1.19%.
For the molecule `CCOC(=O)c1[nH]c2ccccc2c1NC(=O)Cc1cccs1`, the “% Inhibition @ 10 uM” value is -2.74%.
Regarding `CCC[C@H](NC(=O)C1(NC(=O)c2ccc(OC(F)(F)F)cc2)CCCCC1)C(=O)c1nnc(COC)o1`, the “% Inhibition @ 10 uM” value is reported as -3.04%.
Regarding `O=C(CCn1cccn1)NCc1cccs1`, the “% Inhibition @ 10 uM” value is given as -0.656%.
Consider `N#CCNC(=O)[C@@H](Cc1ccc(C(=O)c2ccccc2)cc1)NC(=O)OCc1ccccc1`, for which the “% Inhibition @ 10 uM” value is reported as 0.079%.
In the case of `COc1ccc(C2C(C#N)=C(N)OC3=C2C(=O)CCC3)c(OC)c1` (centres unmarked), the “% Inhibition @ 10 uM” value is -5.79%.
On to `COc1ccc(Cl)cc1NC(=O)NC1CCCCC1`, for which the “% Inhibition @ 10 uM” value is reported as -4.01%.
For the molecule `Cc1cccc(CCNC(=O)C2c3ccccc3C(=O)N3CCc4ccccc4C23)c1` (centres unmarked), the “% Inhibition @ 10 uM” value is listed as -1.62%.
Under `CCC(C)N(CCNC(=O)Cn1ncc2c1-c1cc(C)ccc1CC2)Cc1ccco1` (centres unmarked) stands -1.51%.
Take `CC(C)OCc1cc(CN2CCOCC2)c(O)c2ncccc12`: the “% Inhibition @ 10 uM” value is 1.12%.
On to `Cc1ccc(S(=O)(=O)C2C(=O)N(C)C3(C)CC2c2cc(Br)ccc2O3)cc1` (centres unmarked), for which the “% Inhibition @ 10 uM” value is -4.24%.
Consider `CC(C)(O)C(=O)/C=C/c1ccc2c(c1)OCO2`, for which the “% Inhibition @ 10 uM” value is -6.44%.
As for `Cc1ccsc1-c1nc(CSCC(=O)N2CCC3(CC2)OCCO3)c(C)o1`, the “% Inhibition @ 10 uM” value came out at 0.689%.
As to `CCN(CC)CCN(CC)CCC1=C(C)CCCC1(C)C`, the “% Inhibition @ 10 uM” value was found to be 1.9%.
With `CN1CCCCc2c1nc1ccccc1c2N` the figure was -2.42%; with `CC1(C)CC(=O)C(/C=N/CCCO)=C(O)C1`, 1.25%.
As to `COc1ccc(N2CCN(C(=O)c3csc(C)c3C)CC2)cc1`, the “% Inhibition @ 10 uM” value came out at 1.85%.
With `O=C(c1ccccc1)N1CCN(C(=O)c2cccnc2)CC1` the figure was 0.565%; with `CN(Cc1ccccc1)S(=O)(=O)c1ccc(NC(=O)CCC(=O)O)cc1`, 2.48%; with `COc1cc(OC)c(C(=O)O/N=C(\N)c2cccnc2)cc1OC`, -7.46%.
Take `Cc1ccc(-c2csc(NC(=O)C3CCCCC3C(=O)O)n2)cc1` (centres unmarked): the “% Inhibition @ 10 uM” value is reported as -0.425%.
In the case of `CCOC(=O)C1=CN(C)C=C(C(=O)OCC)C1c1cc2c(cc1Br)OCO2`, the “% Inhibition @ 10 uM” value is on record as -5.05%.
Take `Cc1nn(C(=O)CNC(=O)c2ccccc2)c(C)c1C`: the “% Inhibition @ 10 uM” value turned out to be 3.54%.
On to `COc1ccc(C(=O)C2=C(O)C(=O)N(CCN3CCNCC3)C2c2ccccc2)cc1` (centres unmarked), for which the “% Inhibition @ 10 uM” value amounted to 3.8%.
For `Cc1cccc(C(=O)Nc2ccccc2-n2cccc2)c1`, the “% Inhibition @ 10 uM” value is reported as 2.02%.
Regarding `COCCOC(=O)c1[nH]c2c(c1C)C(=O)CC(c1cc(OC)c(OC)c(OC)c1)C2` (centres unmarked), the “% Inhibition @ 10 uM” value is listed as -2.63%.
Under `COc1ccc(OC)c(NC(=O)COc2ccc(C)cc2)c1` stands -1.61%; under `CCC(Oc1ccccc1)C(=O)Nc1ccc2ccccc2c1` (centres unmarked), 2.03%.
With `Cc1cc(NS(=O)(=O)c2ccc(C(C)(C)C)cc2)no1` the figure was -1.47%.
On to `CC(C)Oc1ccc(C(=O)Nc2sc3c(c2C(=O)NCc2cccnc2)CCCC3)cc1`, for which the “% Inhibition @ 10 uM” value is -10.8%.
With `Cc1ccccc1C(=O)NCc1ccco1` the figure was 0.273%; with `Cc1ccc(CSCc2ccc(C(=O)NCCC(C)C)o2)cc1`, 6.86%; with `COc1ccc(CCNC(=O)Cn2cc(C(=O)c3ccc(C)cc3)c(=O)c3ccc(C)nc32)cc1OC`, 2.01%.
`COc1ccc2c(c1)c(=O)c(C(=O)O)c(-c1ccc3c(c1)OCO3)n2C`: the “% Inhibition @ 10 uM” value is listed as -6.43%.
For the molecule `CCOc1ccccc1C1C(C#N)=C(N)Oc2[nH]nc(C)c21` (centres unmarked), the “% Inhibition @ 10 uM” value is listed as -8.28%.
Consider `Cc1cccc(C)c1NC(=O)Cn1c(-c2nonc2N)nc2ccccc21`, for which the “% Inhibition @ 10 uM” value was 0.777%.
In the case of `CC1(C)CC(O)=C/C(=N/CCN2CCN(C(=O)Nc3ccc(Cl)cc3)CC2)C1`, the “% Inhibition @ 10 uM” value is listed as -0.366%.
Take `COc1ccc(/C=C/c2sc3ccc(O)cc3[n+]2C)cc1`: the “% Inhibition @ 10 uM” value was determined as 2.1%.
Take `CCn1c2ccccc2c2cc(CNCCc3ccccc3)ccc21`: the “% Inhibition @ 10 uM” value turned out to be 0.162%.
Consider `C=Cc1ccc(Cn2c(C(=O)O)c(CNCc3ccc(Cl)cc3)c3ccc(OC)cc32)cc1`, for which the “% Inhibition @ 10 uM” value is 7.39%.
Under `CC1CCCC(N(C)C2CCN(C)CC2)C1` (centres unmarked) stands 1.88%; under `Cn1nc(-c2ccccc2F)c2cc(C(=O)NCCN3CCN(Cc4ccccc4)CC3)sc21`, 2%.
With `Cc1ccc(S(=O)(=O)N2CCN(Cc3cc(-c4ccccc4)ccc3O)CC2)cc1`, the “% Inhibition @ 10 uM” value is on record as -3.48%.
Regarding `COc1cccc2c1OC1(C)CC2C(S(=O)(=O)c2ccc(C(C)C)cc2)C(=O)N1` (centres unmarked), the “% Inhibition @ 10 uM” value is -8.02%.
With `COc1cc(OC)c(OC)cc1/C=C1\N=C(c2ccc(C)c(C)c2)OC1=O`, the “% Inhibition @ 10 uM” value is listed as 5.94%.
